Experimental data published in PubChem BioAssay AID1345083 (National Center for Advancing Translational Sciences (NCATS), 2018).
About 6,200 (6.6%) of roughly 94,000 compounds were called active. The shares of active, inactive and inconclusive entries below differ from those in the screen. The call rests on the fitted dose curve; in most records, active means well fitted inhibition curve with a large enough effect; inconclusive means small, poorly fitted or top-dose-only effect; inactive means flat fitted curve, though single readings scatter. Potencies of inconclusive entries are doubtful fits and often do not repeat.

Test: Cytotoxic Profiling in HEK 293 Cell Line of Diverse Libraries Using Quantitative High-Throughput Screening; further: nearly all actives have a fitted effect of over 60% in size
Settings: HEK 293 viability, ATP luminescence (CellTiter-Glo), 48-72 h; activity change, negative = cytotoxicity: at 115 µM (top of the series) unless noted; series mostly up to 115 µM
Procedure, shortened: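 HEK 293 seeded at 250 cells/well receive compound via pintool. After 48 or 72 hr at 37 degree Celsius, 5% CO2 and 95% humidity, CellTiter-Glo is dispensed and luminescence read following 10 min at room temperature.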
On the % scale 0 is the no-effect control and ±100 the full control effect; potency means the concentration at half of the fitted maximal effect; tags describe the fitted curve by direction and shape.

SMILES | Potency | outcome | activity change, negative = cytotoxicity
CCN1C[C@H]2COc3ccc(C)cc3[C@H]2N(C(=O)c2ccccc2)CCC1=O | inconclusive: 44.7 µM [inhibitor, full curve, poor fit] | – | –
O=C(Nc1cccc(C(F)(F)F)c1)N[C@H]1CO[C@H]2[C@@H]1OC[C@@H]2n1nnnc1Oc1ccccc1 | – | inactive | –
O=C(NCc1ccccc1F)C1c2ccccc2C(=O)N(Cc2ccccc2)C12CCCC2 (stereo unspecified) | inconclusive: 50.1 µM [inhibitor, partial curve, poor fit] | – | –
COC(=O)c1cccc(NC(=S)N[C@H]2CO[C@H]3[C@@H]2OC[C@@H]3n2cc(-c3ccccc3)nn2)c1 | inconclusive: 44.7 µM [inhibitor, partial curve, poor fit] | – | –
CCOC(=O)C1CCN(C(=O)C2COC3(CCC(C)CC3)N2C(=O)c2ccccc2F)CC1 (stereo unspecified) | inconclusive: 89.1 µM [inhibitor, single point] | – | –
c1ccc(-c2cnc([C@@H]3COCCN3Cc3ccncc3)[nH]2)cc1 | – | inactive [at 172 µM] | –
COc1ccc(Nc2ccnc(N3CCC(C(=O)NC4CC4)CC3)n2)cc1 | inconclusive: 89.1 µM [inhibitor, single point] | – | –
O=C(NCc1ccc2c(c1)OCO2)C1COC2(CCCCC2)N1C(=O)Cc1cccs1 (stereo unspecified) | inconclusive: 56.2 µM [inhibitor, partial curve, poor fit] | – | –
Cc1ccn2c(C(=O)N3CC[C@@](C)(O)[C@@H](O)C3)nnc2n1 | – | – | inactive: -9.83%
O=C(NCc1ccc(N2CCOCC2)cc1)c1cccc2c1CCN2C(=O)C1CC1 | inconclusive: 100 µM [inhibitor, single point] | – | –
COc1ccc(Cl)cc1S(=O)(=O)N1CCCC(CNC(=O)c2ccco2)C1 (stereo unspecified) | – | – | inactive: -23.9%
CNC(=O)c1cn2cc(-c3cccc(C(F)(F)F)c3)sc2n1 | active: 28.2 µM | – | –
Cc1nn(-c2ccccc2)c2c1C(C(C)C)N(C1CCCN(C(=O)Nc3ccccc3)C1)C2=O (stereo unspecified) | inconclusive: 25.1 µM [inhibitor, full curve] | – | –
CC1=C[C@@H](CN2CCN(C)CC2)[C@H](C(C)C)C[C@H]1Cc1nnc(-c2ccccc2F)o1 | active: 44.7 µM | – | –
CN(Cc1cccnc1)c1nc2c(c(=O)[nH]1)CCN(Cc1ccc(F)c(F)c1)CC2 | inconclusive: 10 µM [inhibitor, full curve, poor fit] | – | –
CN1C(=O)C2(CCN(Cc3ccc(F)cc3)C2)c2ccccc21 (stereo unspecified) | active: 70.8 µM | – | –
CC(C)(C)c1nc(C(=O)NCc2ccc(F)cc2)n2ccncc12 | inconclusive: 56.2 µM [inhibitor, partial curve, poor fit] | – | –
O=C1NCCC[C@@H]1NC(=O)[C@H]1CN(C(=O)CS(=O)(=O)c2ccccc2)CCN1C(=O)C1CCCCC1 | – | – | inactive: -0.313%
Cc1ccsc1C(=O)C1CCCN(Cc2ccc(OC(C)C)c(CO)c2)C1 (stereo unspecified) | inconclusive: 39.8 µM [inhibitor, partial curve, poor fit] | – | –
COc1cccc(CN2CC[C@H](c3nc4ccccc4s3)C2)c1 | active: 100 µM | – | –
NCCCC(=O)N1CCCC(N2CCN(c3cccc(C(F)(F)F)c3)CC2)C1 (stereo unspecified) | inconclusive: 89.1 µM [inhibitor, single point] | – | –

SMILES | Potency | outcome | activity change, negative = cytotoxicity
CC1(c2ccccc2)N(Cc2ccccc2F)C(=O)OC12CCN(C(=O)CN1CCOCC1)CC2 (stereo unspecified) | – | – | inactive: 3.75%
C=CCCC(CN1CCSCC1)Oc1nc(OC)cc(OC)n1 (stereo unspecified) | inconclusive: 31.6 µM [inhibitor, full curve] | – | –
OCC1CN(Cc2ccccc2)CC12CCN(Cc1ccccn1)CC2 (stereo unspecified) | inconclusive: 100 µM [inhibitor, partial curve, poor fit] | – | –
O=C1CO[C@H]2CN(Cc3ccc4c(c3)OCO4)C[C@H]2N1c1ccccc1 | inconclusive: 89.1 µM [inhibitor, partial curve] | – | –
O=S(=O)(c1ccc(C(F)(F)F)cc1)N1CCCC(Cn2cnc3cccnc32)C1 (stereo unspecified) | inconclusive: 79.4 µM [inhibitor, single point] | – | –
O=C(NCC(F)(F)F)C1CCCN(Cc2cccc(-c3ccc(F)cc3F)c2)C1 (stereo unspecified) | inconclusive: 50.1 µM [inhibitor, partial curve, poor fit] | – | –
O=C(Nc1cccc2ccccc12)O[C@@H]1CO[C@H]2[C@@H]1OC[C@@H]2n1nnnc1-c1ccc(-c2ccccc2)cc1 | – | – | inactive: -0.857%
CC1(c2ccccc2)N(Cc2ccccc2)C(=O)OC12CCN(Cc1ccccn1)CC2 (stereo unspecified) | inconclusive: 89.1 µM [inhibitor, partial curve, poor fit] | – | –
CCC(=O)N1Cc2ccccc2CC2(CCCN2CC2CCCC2)C1 (stereo unspecified) | inconclusive: 79.4 µM [inhibitor, single point] | – | –
O=C(NC1CCN(c2cc(-c3cccs3)[nH]n2)C1)c1ccc(Br)cc1 (stereo unspecified) | inconclusive: 79.4 µM [inhibitor, single point] | – | –
Cc1cc2ncc(C(=O)N(C)Cc3cccnc3)cn2n1 | – | inactive [at 172 µM] | –
O=C(CCc1conc1-c1ccc(F)cc1)NC1CCCCC1 | inconclusive: 79.4 µM [inhibitor, single point] | – | –
Cc1ccc(C(=O)N2CCCC(n3cc(-c4nc(-c5ccccc5)no4)nn3)C2)cc1 (stereo unspecified) | inconclusive: 44.7 µM [inhibitor, partial curve, poor fit] | – | –
COC[C@@H]1[C@H](NC(=O)c2cnc(-c3cccnc3)nc2C)[C@@H]2CCO[C@H]12 | – | – | inactive: 2.32%
COc1ccc(CCC(=O)N2CCC(Cc3nc(C4CCOCC4)no3)CC2)cc1 | inconclusive: 56.2 µM [inhibitor, partial curve, poor fit] | – | –
O=C1CCN(C(=O)C2CCN(C(=O)c3cccnc3)CC2)CCCCCCN1 | – | – | inactive: 1.22%
C=CCn1cc2c3c(cccc31)[C@H](CC(C)C)N[C@H](C(=O)N1CCN(C)CC1)C2 | active: 79.4 µM | – | –
COc1cccc(C(=O)N2CCC3(CC2)Cc2ccccc2NC3=O)c1 | active: 44.7 µM | – | –
O=C(c1cccc(Cl)c1)N1CCCC(C(=O)N2CCC(N3CCOCC3=O)CC2)C1 (stereo unspecified) | – | – | inactive: -5.73%
Cc1ccc(OCCN(C)Cc2cc(C#CCO)cs2)c(C)c1 | inconclusive: 56.2 µM [inhibitor, partial curve, poor fit] | – | –
